# In all, about 2,200 compounds went through this assay and fewer than 10 were called active. Some of the results follow. Entries without a call are filed as inconclusive in the source.
# Molecular target: GTPase KRas (Homo sapiens) (UniProt P01116)
# Experiment: Cysteine mutants labelled by reactive fragments (mass read-out) (AID 2202238)
# Parameters: protein at 5 µM with 500 µM competing thiol for 1.5 h
# Details: KRAS G12D cysteine mutants, disulfide tethering, MALDI-TOF labeling; stronger effect = higher value; H27C mutant labeling; fragment at 500 µM
# UniProt P01116, sequence (P01116 whole entry, looked up, the tested form may be a part): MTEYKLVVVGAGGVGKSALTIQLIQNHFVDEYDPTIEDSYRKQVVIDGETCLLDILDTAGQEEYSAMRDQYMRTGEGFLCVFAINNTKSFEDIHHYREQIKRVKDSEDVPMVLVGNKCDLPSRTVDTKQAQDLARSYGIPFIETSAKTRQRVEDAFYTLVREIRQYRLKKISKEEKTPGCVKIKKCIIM
row,SMILES,percent labeling [%]
1,O=C(CCS)NCc1cc(Br)cc(Cl)n1,47.3
2,Cc1ccn(-c2cccc(NC(=O)CCS)c2)n1,35.3
3,CC(C)(C)OC(=O)N1CCC(O)(C2CCN(C(=O)CCS)CC2)CC1,32.3
4,O=C(CCc1cnc2ccccc2c1)NCCS,34.4
5,COc1ccc(OC)c(-c2cc(C(=O)NCCS)no2)c1,31.6
6,Cc1c(-c2ccccc2)oc2c(C(=O)NCCS)cccc2c1=O,22
7,CC1Cn2nc(C(=O)NCCS)cc2C(=O)N1 (configuration not stated),45.1
8,O=C(CCCc1ncc(-c2ccccc2)o1)NCCS,24.1
9,Cn1cc([C@@H]2OCC[C@H]2C(=O)NCCS)cn1,32.5
10,O=C(CCc1nnc2ccc(Cl)nn12)NCCS,37.9
11,Cc1nc(COc2cccc(C(=O)NCCS)c2)no1,42.2
12,O=C(NCCS)c1cc2c(Br)cccc2cn1,45.1
13,Cc1ccc(NC(=O)C2(CNC(=O)CCS)CCCC2)cc1C,29.4
14,COc1cc(CCNC(=O)CCS)ccc1O,38.6
15,O=C(CCS)Nc1cccc(CN2CCCC2=O)c1,41.3
16,O=C(CCS)NCCn1ccc(C(F)(F)F)n1,27.6
17,Cc1nc(-c2cccc(C(=O)NCCS)c2)cs1,35.5
18,CC1(c2cccc(C(=O)NCCS)c2)NC(=O)NC1=O (configuration not stated),48.5
19,Cn1c(C(=O)NCCS)c(Cl)c2ccccc21,26.1
20,O=C(NCCS)c1ccc(Cn2cc(Cl)cn2)o1,50.2
21,NC(=O)c1cc(NC(=O)CCS)cc(C(N)=O)c1,49.9
22,O=C(CCS)Nc1cccc(Cn2cccnc2=O)c1,35.8
23,CCOc1ccc2ccccc2c1C(=O)NCCS,33.3
24,O=C(CCS)NCc1ccn(-c2c(F)cccc2F)n1,46
25,COC(=O)C(Cc1cn(C)nc1C)NC(=O)CCS (configuration not stated),26.7
26,O=C(Cc1csc(-c2cnccn2)n1)NCCS,39.6

row,SMILES,percent labeling [%]
1,CCC(OC1CCCC(C)C1)C(=O)NCCS (configuration not stated),24.2
2,O=C(CCn1sc2ccccc2c1=O)NCCS,9.8
3,CC(C)c1ccc2c(c1)CC[C@H]1[C@](C)(CNC(=O)CCS)CCC[C@]21C,8.4
4,CC1(CNC(=O)CCS)CCS(=O)(=O)CC1,28.2
5,O=C(CCS)N1CCCN(C(=O)c2ccc[nH]c2=O)CC1,34.6
6,O=C(CCS)N1CCN(c2cncc3nnnn23)CC1,11.4
7,Cc1ccc(-c2cc(C(=O)NCCS)[nH]n2)cc1,25.2
8,O=C1CC(C(=O)NCCS)C2CCCCC2N1 (configuration not stated),29
9,CC1C(C(=O)NCCS)CCN1c1ccccc1 (configuration not stated),14.8
10,O=C(CCS)NC1CCC2(CC1)CC(O)C2 (configuration not stated),38.7
11,O=C(O)Cc1ccc(S(=O)(=O)N2CCC(C(=O)NCCS)CC2)cc1,23.9
12,COC(=O)c1cc(=O)[nH]c2c1CN(C(=O)CCS)CC2,36.5
13,COc1c(C)cnc(Cn2ccc(NC(=O)CCS)n2)c1C,39.9
14,COc1ccc2c(c1)c(C(=O)NCCS)c(C)n2C,33.8
15,O=C(CCS)N1CCN(C(=O)Nc2ccc(Cl)cc2)CC1,25.9
16,O=C(CCS)Nc1ccc2c(c1)ncn2CC(F)(F)F,42.8
17,CC1(C)CC(C(=O)NCCS)C1C(F)(F)F (configuration not stated),21.3
18,C[C@H](C(=O)NCCS)N1Cc2ccccc2C1=O,33.9
19,CCOC(=O)c1[nH]ncc1C1CCN(C(=O)CCS)CC1,59.2
20,CN(CC(=O)Nc1ccc2c(c1)OCCO2)C(=O)CCS,42.5
21,COc1cccc(Cn2nc(C)c3c(NC(=O)CCS)[nH]nc32)c1,31.2
22,O=C(NCCS)C(F)(F)c1ncc[nH]1,25.3
23,COc1ccc2c(c1)CC1(CCN(C(=O)CCS)CC1)C2=O,48.5
24,CCc1oc2ccccc2c1CC(=O)NCCS,26.4
25,O=C(CCS)Nc1ccc(-c2nnc3n2CCOC3)cc1,48.3
26,O=C(CNC(=O)c1cc2ccccc2[nH]1)NCCS,27

row,SMILES,percent labeling [%]
1,COc1ccnc(N2CCN(C(=O)CCS)CC2)n1,41.8
2,COc1ccc(-n2nc(C(=O)NCCS)cc2C)cc1,43.4
3,O=C(NCCS)c1ccc(Cc2n[nH]c(=O)c3ccccc23)cc1F,31.8
4,Cc1nn(C2CCOCC2)cc1NC(=O)CCS,33.3
5,Cc1cc(C)n2nc(CC(=O)NCCS)nc2n1,30.9
6,Cc1nc(C2CCN(C(=O)CCS)CC2)no1,28.9
7,O=C(NCCS)c1ccc2nnc(-c3ccccc3)n2c1,46.5
8,Cc1nn(C)c(C)c1CC(=O)N1CCC(C(=O)NCCS)CC1,36.5
9,O=C(CCS)N1CCC(c2nc(-c3ccc(F)cc3)no2)(C(F)(F)F)C1 (configuration not stated),11.4
10,Cc1nc2c(cc(OCCNC(=O)CCS)c3ccsc32)s1,24.4
11,Cc1cccc(NCC2CCCN2C(=O)CCS)n1 (configuration not stated),51.7
12,O=C(NCCS)C1CCN(C(=O)c2ccccc2)C1 (configuration not stated),44.1
13,Cc1ccc(Nc2nccc(C(F)(F)F)n2)cc1C(=O)NCCS,16.1
14,Cc1nc2cc(F)cc(C(=O)NCCS)c2nc1C,30.5
15,O=C(CCS)N1CCC(c2cc(CO)on2)CC1,34.7
16,O=C(CCS)N1CCc2c(nc[nH]c2=O)C1,35.1
17,Cc1cc(C)n(C2CN(C(=O)CCS)C2)n1,35.8
18,O=C(NCCS)c1c(Cl)cnn1C1CCCC1,28.1
19,CC(C)CN(Cc1ccccn1)C(=O)CCS,36.1
20,Cc1nn(C)c(-n2cncn2)c1NC(=O)CCS,29
21,O=C(CCS)NCC(=O)N1CCN(c2ccccc2)CC1,31
22,O=C(NCCS)c1ccc(Oc2ccc(F)cc2Br)nc1,25.7
23,O=C(NCCS)c1ccnc2nc(C3CCOCC3)[nH]c12,43.4
24,O=C(CCS)Nc1c(-c2ccccc2)[nH][nH]c1=O,16
25,O=C(NCCS)C(CC1CCCO1)C(F)(F)F (configuration not stated),27.5
26,CCOc1ccc(NC(=O)CCS)c2ncccc12,30.8

row,SMILES,percent labeling [%]
1,O=C(NCCS)c1cc(-c2cnc3[nH]ccc3c2)ccn1,34.5
2,Cc1cc(CNC(=O)CCS)ccc1Oc1ccc(F)cc1,24.9
3,O=C(NCCS)c1cn(CC2CCOC2)nn1 (configuration not stated),35.8
4,Cc1c([C@H]2[C@H](C(=O)NCCS)CC(=O)N2C2CC2)cnn1C,27.7
5,O=C(NCCS)c1cccc(NC(=O)c2ccc3nc[nH]c3c2)c1,32.5
6,O=C(CCc1nc2ccccc2n1-c1ccccc1)NCCS,25.5
7,O=C(Cn1nc(-c2ccccc2)ccc1=O)NCCS,41.1
8,Cc1nc2nc(C(=O)NCCS)cc(C(C)(C)C)n2n1,34.3
9,O=C(NCCS)c1cnc(C2CCCO2)s1 (configuration not stated),20.3
10,O=C(CCS)NCC1CN(Cc2ccccc2)Cc2nccn2C1 (configuration not stated),33.1
11,O=C(CCS)N1CCC(n2c(=O)[nH]c3cccnc32)CC1,54.4
12,O=C(CCS)Nc1ccc(-n2ccccc2=O)cc1F,47.3
13,CC1(C)CN(C(=O)CCS)CCN(C(=O)OC(C)(C)C)C1,40.4
14,CC1CCc2cc(F)cc3c(=O)c(C(=O)NCCS)cn1c23 (configuration not stated),43.5
15,O=C(CCS)NC1CCC(C(F)(F)F)CC1 (configuration not stated),33.9
16,CCc1nc(COc2ccc(C(=O)NCCS)cc2)no1,32.7
17,O=C(CCS)Nc1ccc(Oc2ccc(F)cc2)c2ccncc12,18.1
18,O=C(CCS)NCc1cc(=O)[nH]c(C2CC2)n1,31
19,Cc1nc(NC(=O)CCS)sc1Cc1ccccc1,38
20,O=C(CCS)Nc1cnn(-c2ccccc2)c1,27.1
21,O=C1NC(=O)C2(CCC(C(=O)NCCS)CC2)N1 (configuration not stated),41.4
22,O=C(CCS)Nc1ccnn1Cc1ccc(Cl)cc1,42
23,COCc1nc2sc(C(=O)NCCS)c(C)c2c(=O)[nH]1,46.7
24,O=C(NCCS)C1CCCN(c2ncnc3sccc23)C1 (configuration not stated),40.2

# Reference: PubChem BioAssay AID2202238 (Ras Initiative Chemistry Research Team, Frederick National …, 2025)
